Results on 2 molecules are retold here after patent US20240409647A1, “BISPECIFIC BINDING PROTEINS AGAINST ALARMINS AND USES THEREOF” (SINOMAB BIOSCIENCE LIMITED, priority 2022, published 2024).

Assay [1] has as its target T1, TSLP (Homo sapiens, UniProt Q969D9).
T1 construct: purchased R&D systems
Description: ELISA, antigen binding specificity of bsBp (TSLP). Details: key: −: no binding; +: weak; ++: moderate; +++: strong binding; N/A refers to no binding affinity. Conditions: 33.5 nM; antigen coated at 2 μg/mL. The method, then:
(§1) Binding specificities of bsBp were evaluated by standard ELISA assays. Briefly, ELISA strips were coated with the respective target antigens, including IL17RB, IL-33, or TSLP (R&D systems) at a final concentration of 2 μg/mL. Bispecific antibodies were added at 33.5 nM to ELISA strips coated with the desired antigen. After incubation under room temperature for 2 hours, ELISA strips were washed five times with PBS. […] No result is provided for SM17-human TSLPR as the yield was too low to be detected.
On the technique in general: In an ELISA, binding on a coated surface is turned into a signal by an enzyme label.

Assay [2] deals with Normal human DCs. In words: Dendritic cell potency assay, TSLP-induced CCL17 production. The format is cell-based. Further details: key: −: no inhibition; +: weak; ++: moderate; +++: strong inhibition. To be noted: 5 μg/mL; TSLP 10 ng/mL, 5 days. The source says:
TSLP from inflamed epithelium promotes maturation of dendritic cells (DCs) to prime Th2 responses via CCL17, which induces chemotaxis of CD4+ T cells to mediate inflammation (Kitajima and Ziegler. 2013. “Cutting Edge: Identification Of The Thymic Stromal Lymphopoietin-Responsive Dendritic Cell Subset Critical For Initiation Of Type 2 Contact Hypersensitivity”. J Immunol 191: 4903-4907; Bleck et al. 2015. “Co-Expression Of Type 2 Immune Targets In Sputum-Derived Epithelial And Dendritic Cells From Asthmatic Subjects”. J Allergy Clin Immunol 136: 619-627.e5). Normal human DCs were obtained from Lonza (Bend, OR). The DCs were cultured in LGM-3 medium (Lonza). TSLP (10 ng/mL) is added into the DC cultures for 5 days in the presence of 5 μg/mL of SM17, IgG4 isotype control (Sino Biological), SM17-TSLPR bsBp (SM17 fused with TSLP receptor extracellular domain) or SM17-anti-TSLP bsBp 2 #. The supernatants are harvested and the levels of CCL17 measured by ELISA following the manufacturer's specification (R&D systems).

The subject of assay [3] is Th2 cell population in human PBMC. Description: Th2 cell population in human PBMC culture (flow cytometry). To be noted: IL-2 (10 unit/mL) and three alarmins (10 ng/ml), 5 days. The format is cell-based. Details: key: −: no binding; +: weak; ++: moderate; +++: strong binding; N/A refers to no binding affinity. The source says: (§2) While alarmins are known to work in concert to enhance ILC2 and Th2 cell functions such as increase in cell population, steroids such as Dexamethasone (Dex) can negate these effects, resulting in the mitigation of type 2 immune responses [Jia, Yi et al. American Journal Of Respiratory Cell And Molecular Biology, vol. 55, 5 (2016): 675-683]. ILC2 and Th2 cell population can be determined by flow cytometry (BD FACSVerse) following standard procedures known to those skilled in the art.
(Flow cytometry measures light scatter and fluorescence of single cells or particles in a stream.)

Assay [4] deals with T1, TSLP. Description: Bio-Layer Interferometry (Octet), binding kinetics of bsBp to human TSLP. Conditions: for Ka: bsBp or SM17 immobilized at 20 μg/mL. The procedure:
The binding affinity of bsBp to the targeted alarmins was determined using a bio-Layer Interferometry analysis (Octet ReD96 system, Sartorius). bsBp or SM17 (20 μg/mL) was immobilized on biosensors via binding to anti-human Fab CH1 region; serially diluted human IL33 and TSLP (158.7 nM, 79.4 nM, 39.7 nM) (R&D systems) were added to plot the association and dissociation curve according to the manufacturer's specification. Biosensors immobilized with irrelevant antibody (SM03, anti-human CD22 chimeric IgG1 antibody, SinoMab BioScience Limited, 20 μg/mL) were used as control reference.
For orientation: Biolayer interferometry detects binding as a change in optical thickness at a sensor tip.

Assay [5] concerns Human PBMCs. Description: CCL17 release from human PBMC incubated with TSLP. The format is cell-based. Details: key to Intensity of specific cytokine inhibition, CCL-17: −: no binding; +: weak; ++: moderate; +++: strong binding; N/A refers to no binding affinity. To be noted: 5 μg/ml; for Intensity of specific cytokine inhibition, CCL-17: human PBMC. The method, then: Human PBMCs (4×10^5 per group, Ixcells) were incubated with IL-2 (10 unit/mL, PeproTech) and various alarmin/alarmin combinations to mimic the pro-inflammatory cytokines release during allergic diseases. For IL-5 and IL-13 releases, PBMCs were incubated with IL-2 and three alarmins (all 10 ng/ml) for three days. For CCL17 release, PBMC was incubated with TSLP (10 ng/ml) for 1 day. For CCL8 and IFNγ releases, PBMCs were incubated with IL-12 (10 ng/ml, Sino Biological) and IL-33 (10 ng/ml) for 1 day. Cells were pretreated with SM17 (5 μg/ml) or IgG4 isotype control (5 μg/ml) for an hour before the addition of cytokines.
Supernatants were collected and the cytokine concentration were measured by ELISA kits (R&D systems). These established assays were used to test the potency of and SM17 and bsBps. […] Results were expressed in absolute amount in pg/ml.
SM17, three different SM17-anti-IL33 bsBps and three different SM17-anti-TSLP bsBps (all at 5 μg/ml) were added to human PBMC cultures under conditions that shall induce the release of IFNγ, CCL8, CCL17 and IL-5 as described in Example 11 above. The levels of different cytokines and chemotactic factors in supernatant obtained in induced PBMC were evaluated using standard ELISA methods.

The target of assay [6] is T2, IL-17RB (Homo sapiens, UniProt Q9NRM6).
T2 construct: purchased R&D systems
T2 sequence (Q9NRM6 18-502): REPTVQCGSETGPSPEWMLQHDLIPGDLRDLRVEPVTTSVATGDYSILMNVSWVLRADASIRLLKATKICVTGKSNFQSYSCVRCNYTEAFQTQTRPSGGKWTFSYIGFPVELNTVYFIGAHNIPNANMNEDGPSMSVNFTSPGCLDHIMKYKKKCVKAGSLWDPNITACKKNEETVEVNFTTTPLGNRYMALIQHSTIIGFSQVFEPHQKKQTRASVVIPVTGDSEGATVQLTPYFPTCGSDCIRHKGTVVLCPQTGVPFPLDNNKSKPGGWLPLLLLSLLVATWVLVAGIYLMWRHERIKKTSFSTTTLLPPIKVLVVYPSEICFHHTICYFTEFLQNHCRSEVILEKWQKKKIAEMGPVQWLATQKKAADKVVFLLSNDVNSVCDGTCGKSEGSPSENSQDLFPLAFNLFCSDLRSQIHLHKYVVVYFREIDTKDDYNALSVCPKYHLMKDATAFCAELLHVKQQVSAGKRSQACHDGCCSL
In words: ELISA, antigen binding specificity of bsBp (IL-17RB). Further details: key: −: no binding; +: weak; ++: moderate; +++: strong binding; N/A refers to no binding affinity. Conditions: 33.5 nM; antigen coated at 2 μg/mL. The procedure:
as §1

Assay [7] deals with ILC2 population in human PBMC. Description: ILC2 cell population in human PBMC culture (flow cytometry). The assay is classed as cell-based. Further details: key: −: no inhibition; +: weak; ++: moderate; +++: strong inhibition. Conditions: IL-2 (10 unit/mL) and three alarmins (10 ng/ml), 5 days.
Text: as §2

Assay [8] has as its system Th2 cell population in human PBMC. In words: Th2 cell population in human PBMC culture (flow cytometry). The assay is classed as cell-based. Further details: key: −: no inhibition; +: weak; ++: moderate; +++: strong inhibition. Conditions: IL-2 (10 unit/mL) and three alarmins (10 ng/ml), 5 days.
Text: as §2

B1: SM17-anti TSLP 1# bsBp: bispecific binding protein, SM17 IgG fused to anti-TSLP scFv; HC SEQ ID NO: 60, LC SEQ ID NO: 33 (antibody)
heavy: MDLLHKNMKHLWFFLLLVAAPRWVLSQVQLVQSGAEVKKPGASVKVSCKASGYTFISYWMNWVRQAPGQGLEWMGRIDPYDSEIQYNQKFKDRVTMTRDTSISTAYMELSRLRSDDTAVYYCARSGGFDWFAYWGQGTLVTVSSASTKGPSVFPLAPCSRSTSESTAALGCLVKDYFPEPVTVSWNSGALTSGVHTFPAVLQSSGLYSLSSVVTVPSSSLGTKTYTCNVDHKPSNTKVDKRV[sequence of human IgG4 Fc with S228P (EU numbers) not given]GGGSGGGGSGGGGSQMQLVESGGGVVQPGRSLRLSCAASGFTFRTYGMHWVRQAPGKGLEWVAVIWYDGSNKHYADSVKGRFTITRDNSKNTLNLQMNSLRAEDTAVYYCARAPQWELVHEAFDIWGQGTMVTVSSGGGGSGGGGSGGGGSGGGGSSYVLTQPPSVSVAPGQTARITCGGNNLGSKSVHWYQQKPGQAPVLVVYDDSDRPSWIPERFSGSNSGNTATLTISRGEAGDEADYYCQVWDSSSDHVVFGGGTKLTVL
light: DIQMTQSPSSLSASVGDRVTITCRASENINSNLAWYQQKPGKAPKLLLYDVTNLADGVPSRFSGSGSGTDYTLTISSLQPEDFATYYCQHFWGPPYTFGGGTKVEIKRTVAAPSVFIFPPSDEQLKSGTASVVCLLNNFYPREAKVQWKVDNALQSGNSQESVTEQDSKDSTYSLSSTLTLSKADYEKHKVYACEVTHQGLSSPVTKSFNRGEC
As for B1, the “Intensity of specific antigen binding, TSLP coated on ELISA strips” value in assay [1] is on record as “+++”. Also, the “Potency, inhibition of CCL17 release on dendritic cells” value in assay [2] is “−”. Moreover, the “Cell proliferation inhibition, Th2” value in assay [3] was “++”. In addition, in assay [4], the Kdis was 0.000241 s⁻¹ and the Ka is 472000 M⁻¹ s⁻¹. In addition, in assay [5], the “CCL17 release, suppression effect as compared to SM17 (in words)” value is recorded as “stronger suppression effect” and the “Intensity of specific cytokine inhibition, CCL-17” value is “+”. For the same molecule, in assay [6], the “Intensity of specific antigen binding, IL-17RB coated on ELISA strips” value is listed as “+++”. For the same molecule, the “Cell proliferation inhibition, ILC2” value in assay [7] is on record as “+”.

B2: SM17-anti TSLP 3# bsBp: bispecific binding protein, SM17 IgG fused to anti-TSLP scFv; HC SEQ ID NO: 62, LC SEQ ID NO: 33 (antibody)
heavy: MDLLHKNMKHLWFFLLLVAAPRWVLSQVQLVQSGAEVKKPGASVKVSCKASGYTFISYWMNWVRQAPGQGLEWMGRIDPYDSEIQYNQKFKDRVTMTRDTSISTAYMELSRLRSDDTAVYYCARSGGFDWFAYWGQGTLVTVSSASTKGPSVFPLAPCSRSTSESTAALGCLVKDYFPEPVTVSWNSGALTSGVHTFPAVLQSSGLYSLSSVVTVPSSSLGTKTYTCNVDHKPSNTKVDKRV[sequence of human IgG4 Fc with S228P (EU numbers) not given]GGGSGGGGSGGGGSQVQLVESGGGLVQPGGSLRLSCAASGFTFSSYYMSWVRQAPGKGLEWVSGIFFDGETYYAGSVKGRFTISRDNSKNTLYLQMNSLRAEDTAVYYCARQQYFDHIDIWGQGTLVTVSSGGGGSGGGGSGGGGSGGGGSDIELTQPPSVSVAPGQTARISCGGDSLGGKYVYWYQQKPGQAPVLVIYGDSKRPSGIPERFSGSNSGNTATLTISGTQAEDEADYYCQSYDLQSLNIVFGGGTKLTVLGQ
light: DIQMTQSPSSLSASVGDRVTITCRASENINSNLAWYQQKPGKAPKLLLYDVTNLADGVPSRFSGSGSGTDYTLTISSLQPEDFATYYCQHFWGPPYTFGGGTKVEIKRTVAAPSVFIFPPSDEQLKSGTASVVCLLNNFYPREAKVQWKVDNALQSGNSQESVTEQDSKDSTYSLSSTLTLSKADYEKHKVYACEVTHQGLSSPVTKSFNRGEC
Usually Kd stands for the equilibrium constant for the complex coming apart. Consider B2, for which the “Cell proliferation inhibition, Th2” value in assay [8] is given as “+++”. For the same molecule, in assay [1], the “Intensity of specific antigen binding, TSLP coated on ELISA strips” value is given as “+++”. Further, the “Potency, inhibition of CCL17 release on dendritic cells” value in assay [2] is “−”. In addition, in assay [4], binding was characterised by a dissociation constant (Kd) of 65.8 pM, the Kdis was 3.17e-05 s⁻¹ and the Ka is 481000 M⁻¹ s⁻¹. Further, in assay [5], the “CCL17 release, suppression effect as compared to SM17 (in words)” value is listed as “stronger suppression effect” and the “Intensity of specific cytokine inhibition, CCL-17” value was “+”. Besides, the “Intensity of specific antigen binding, IL-17RB coated on ELISA strips” value in assay [6] is recorded as “+++”.
